Positions count from the first letter of the chain named. This is one part of the list.
T1: RBFOX1 RRM RbFoxmut (Fox-RRM*) (Homo sapiens, UniProt Q9NWB1 109-208, R118D;E147R;N151S;E152T)
T1 sequence: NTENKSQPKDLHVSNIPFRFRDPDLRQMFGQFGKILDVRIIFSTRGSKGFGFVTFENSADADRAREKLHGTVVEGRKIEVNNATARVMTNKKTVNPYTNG

B1: CGAAUUG (DNA:RNA)
RNA: GGGAGACCGGAAUUCAGAUUGUCCCGAAUUGUUAAAUCCCGUCGUAGCCACCA
DNA 1: CAATCTGAATTCCGGTCTCCC
DNA 2: TGGTGGCTACGACGGGATT
B2: AAGUUCC (DNA:RNA)
RNA: B1 RNA with C25A, G26A, A27G, A28U, U30C, G31C
DNA 1: CAATCTGAATTCCGGTCTCCC
DNA 2: TGGTGGCTACGACGGGATT
B3: UAUCCGU (DNA:RNA)
RNA: GGGAGACCGGAAUUCAGAUUGUCCUAUCCGUUUAAAUCCCGUCGUAGCCACCA
DNA 1: CAATCTGAATTCCGGTCTCCC
DNA 2: TGGTGGCTACGACGGGATT
B4: CUAUAGU (DNA:RNA)
RNA: B1 RNA with G26U, A28U, U29A, U30G, G31U
DNA 1: CAATCTGAATTCCGGTCTCCC
DNA 2: TGGTGGCTACGACGGGATT
B5: UGUCAAC (DNA:RNA)
RNA: B3 RNA with A26G, C29A, G30A, U31C
DNA 1: CAATCTGAATTCCGGTCTCCC
DNA 2: TGGTGGCTACGACGGGATT
B6: ACGGAUA (DNA:RNA)
RNA: B1 RNA with C25A, G26C, A27G, A28G, U29A, G31A
DNA 1: CAATCTGAATTCCGGTCTCCC
DNA 2: TGGTGGCTACGACGGGATT
B7: CUUCUUG (DNA:RNA)
RNA: B1 RNA with G26U, A27U, A28C
DNA 1: CAATCTGAATTCCGGTCTCCC
DNA 2: TGGTGGCTACGACGGGATT
B8: GGGGACG (DNA:RNA)
RNA: B1 RNA with C25G, A27G, A28G, U29A, U30C
DNA 1: CAATCTGAATTCCGGTCTCCC
DNA 2: TGGTGGCTACGACGGGATT
B9: CGCGCUU (DNA:RNA)
RNA: B1 RNA with A27C, A28G, U29C, G31U
DNA 1: CAATCTGAATTCCGGTCTCCC
DNA 2: TGGTGGCTACGACGGGATT
B10: GCGGGGC (DNA:RNA)
RNA: B3 RNA with U25G, A26C, U27G, C28G, C29G, U31C
DNA 1: CAATCTGAATTCCGGTCTCCC
DNA 2: TGGTGGCTACGACGGGATT
B11: UGCUUCC (DNA:RNA)
RNA: B1 RNA with C25U, A27C, A28U, U30C, G31C
DNA 1: CAATCTGAATTCCGGTCTCCC
DNA 2: TGGTGGCTACGACGGGATT
B12: GAGUUCA (DNA:RNA)
RNA: B1 RNA with C25G, G26A, A27G, A28U, U30C, G31A
DNA 1: CAATCTGAATTCCGGTCTCCC
DNA 2: TGGTGGCTACGACGGGATT
B13: UUUACCG (DNA:RNA)
RNA: B3 RNA with A26U, C28A, G30C, U31G
DNA 1: CAATCTGAATTCCGGTCTCCC
DNA 2: TGGTGGCTACGACGGGATT
B14: CGGCGGC (DNA:RNA)
RNA: B1 RNA with A27G, A28C, U29G, U30G, G31C
DNA 1: CAATCTGAATTCCGGTCTCCC
DNA 2: TGGTGGCTACGACGGGATT
B15: UUUGCGG (DNA:RNA)
RNA: B3 RNA with A26U, C28G, U31G
DNA 1: CAATCTGAATTCCGGTCTCCC
DNA 2: TGGTGGCTACGACGGGATT
B16: GAUACAA (DNA:RNA)
RNA: B3 RNA with U25G, C28A, G30A, U31A
DNA 1: CAATCTGAATTCCGGTCTCCC
DNA 2: TGGTGGCTACGACGGGATT
B17: CCACCUA (DNA:RNA)
RNA: B1 RNA with G26C, A28C, U29C, G31A
DNA 1: CAATCTGAATTCCGGTCTCCC
DNA 2: TGGTGGCTACGACGGGATT
B18: AAGCAAG (DNA:RNA)
RNA: B3 RNA with U25A, U27G, C29A, G30A, U31G
DNA 1: CAATCTGAATTCCGGTCTCCC
DNA 2: TGGTGGCTACGACGGGATT
B19: AACCCCA (DNA:RNA)
RNA: B3 RNA with U25A, U27C, G30C, U31A
DNA 1: CAATCTGAATTCCGGTCTCCC
DNA 2: TGGTGGCTACGACGGGATT
B20: GAUCGGU (DNA:RNA)
RNA: B3 RNA with U25G, C29G
DNA 1: CAATCTGAATTCCGGTCTCCC
DNA 2: TGGTGGCTACGACGGGATT

What follows are binders tested against T1, RBFOX1 RRM RbFoxmut (Fox-RRM*) (assay: EMSA; HiTS-Eq, 1 nM pool, 10 min; buffer printed only for the single-RNA assays: 10 mM Tris pH 7.5, 150 mM NaCl, 3.4 mM EDTA, 0.001% NP-40, 30 C). Details: tags: His6 N-terminal (pET28a); label: 5' 32P.
Procedure, shortened: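 Relative association constants, normalised to the cognate motif, were derived by comparing read counts of each RNA species with those of the control reaction. The RNA sequenced was the free fraction, separated by 8% native PAGE after a 10 min equilibration in 50 µL of 1 nM 5′-radiolabelled RNA (7 randomized nucleotides) with increasing concentrations of purified wild-type or mutant RbFox RRM.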

First: B1
Second: B2
The binding signal of the first is higher: 0.141 KA relative to UGCAUGU for the first, 0.0389 KA relative to UGCAUGU for the second.

First: B3
Second: B4
The binding signal of the first is lower: 0.086 KA relative to UGCAUGU for the first, 0.0923 KA relative to UGCAUGU for the second.

First: B5
Second: B6
The binding signal of the first is lower: 0.074 KA relative to UGCAUGU for the first, 0.0922 KA relative to UGCAUGU for the second.

Compared with B7, B8 is higher in binding signal: 0.119 KA relative to UGCAUGU for the first, 0.129 KA relative to UGCAUGU for the second.

Compared with B9, B10 is higher in binding signal: 0.1 KA relative to UGCAUGU for the first, 0.116 KA relative to UGCAUGU for the second.

First: B11
Second: B12
The binding signal of the first is higher: 0.0975 KA relative to UGCAUGU for the first, 0.0974 KA relative to UGCAUGU for the second.

First: B13
Second: B14
The binding signal of the first is higher: 0.132 KA relative to UGCAUGU for the first, 0.0901 KA relative to UGCAUGU for the second.

First: B15
Second: B16
The binding signal of the first is higher: 0.0855 KA relative to UGCAUGU for the first, 0.0401 KA relative to UGCAUGU for the second.

First: B17
Second: B18
The binding signal of the first is higher: 0.142 KA relative to UGCAUGU for the first, 0.103 KA relative to UGCAUGU for the second.

First: B19
Second: B20
The binding signal of the first is lower: 0.0673 KA relative to UGCAUGU for the first, 0.15 KA relative to UGCAUGU for the second.
